Measured values as given in PubChem BioAssay AID624417 (National Center for Advancing Translational Sciences (NCATS), 2012).
About 6,400 (1.6%) of roughly 410,000 compounds were called active. This list was built around the results that the source calls inconclusive (neither active nor inactive); the mix of calls is not that of the screen. The call rests on the fitted dose curve; in most records, active means well fitted inhibition curve with a large enough effect; inconclusive means small, poorly fitted or top-dose-only effect; inactive means no such curve, though single readings can be large or run the other way. Potencies of inconclusive entries are left out as doubtful fits.

What follows are molecules tested against Glucagon-like peptide 1 receptor (Homo sapiens) (UniProt P43220) (assay: qHTS of GLP-1 Receptor Inverse Agonists (Inhibition Mode)). Settings: HEK293 GLP-1R CRE-luciferase, luminescence, 24 h, GLP-1R form is constitutively active; activity change, negative = inhibition: at 38.3 µM (top of the series) unless noted.
Chain of UniProt P43220 (P43220 whole entry, looked up): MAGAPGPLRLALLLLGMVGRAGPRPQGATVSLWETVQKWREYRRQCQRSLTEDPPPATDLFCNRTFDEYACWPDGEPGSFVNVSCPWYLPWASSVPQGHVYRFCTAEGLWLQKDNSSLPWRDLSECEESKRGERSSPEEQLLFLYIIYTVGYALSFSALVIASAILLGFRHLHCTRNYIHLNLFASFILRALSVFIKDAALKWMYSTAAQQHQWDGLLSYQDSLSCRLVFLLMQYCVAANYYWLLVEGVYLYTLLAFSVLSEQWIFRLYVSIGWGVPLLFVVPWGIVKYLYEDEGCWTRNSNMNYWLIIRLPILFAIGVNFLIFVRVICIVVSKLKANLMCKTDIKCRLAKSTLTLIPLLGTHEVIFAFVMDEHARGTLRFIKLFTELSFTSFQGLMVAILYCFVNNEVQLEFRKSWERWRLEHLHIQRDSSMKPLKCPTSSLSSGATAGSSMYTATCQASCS
Summary of the method: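 GLP-1R inverse agonism mode: basal reporter luminescence in engineered HEK293 cells measured after one day of compound exposure at 37 deg C, with a 12 min room-temperature detection step.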
Further: nearly all actives have a fitted effect of over 55% in size.
On the % scale 0 is the no-effect control and ±100 the full control effect; potency means the concentration at half of the fitted maximal effect; tags describe the fitted curve by direction and shape.

| Compound | activity change, negative = inhibition | Potency |
| --- | --- | --- |
| O=C(NCCCN1CCCCC1)c1ccc2c(c1)sc1nc(-c3ccc(F)cc3)cn12 | inactive: -5.25% |  |
| Cc1sc2ncnc(N3CCC(C(=O)NNC(=O)c4ccc(F)cc4)CC3)c2c1C |  | inconclusive [inhibitor, single point] |
| COc1cccc(C(=O)Nc2ccc(NC(=O)C3C4C=CC(C4)C3C(=O)O)cc2)c1 (stereo not drawn) |  | inconclusive [inhibitor, partial curve, poor fit] |
| Oc1ccc(Cc2ccccc2Cl)c(O)c1 |  | inconclusive [inhibitor, single point] |
| Fc1ccc(CNC(=S)NC2CCCC2)cc1 |  | inconclusive [inhibitor, single point] |
| CCOC(=O)c1ccc(NC(=O)CS(=O)(=O)c2cn(CC)c3ccccc23)cc1 |  | inconclusive [inhibitor, partial curve, poor fit] |
| O=C(CNc1ccccc1)Nc1cccc2ccccc12 |  | inconclusive [inhibitor, single point] |
| CCc1ccc(-c2cn3nc(C)c(C)nc3n2)cc1 |  | inconclusive [inhibitor, partial curve, poor fit] |
| O=C(Oc1ccc(-c2nc(-c3ccccn3)no2)cc1)c1ccccc1 |  | inconclusive [inhibitor, partial curve, poor fit] |
| COc1ccc(-c2nnc(SCC(=O)c3ccc(NC(C)=O)cc3)o2)cc1OC | inactive: 3.76% |  |
| Cc1ccc(C2c3c(-c4ccccc4O)n[nH]c3C(=O)N2Cc2ccncc2)cc1 (stereo not drawn) | inactive: 0% |  |
| CC(C)(C)OC(=O)N1CCCC(C(=O)Nc2cccc(C(=O)NCCCc3ccccc3)c2)C1 (stereo not drawn) |  | inconclusive [inhibitor, partial curve, poor fit] |
| O=C(CCl)Nc1ccc(N=Nc2ccccc2)cc1 |  | inconclusive [inhibitor, single point] |
| COc1ccc(NC(=O)CC2C(=O)N(C)C(=S)N2CCc2ccccc2F)cc1 (stereo not drawn) |  | inconclusive [inhibitor, partial curve, poor fit] |
| CC(C)c1ccc(/C=C/C(=O)NC2CCCCC2)cc1 |  | inconclusive [inhibitor, partial curve, poor fit] |
| CC[C@@]12C(=O)N(c3cccc(F)c3)C(=O)N1[C@H](c1ccc(Cl)cc1)[C@@H]1C(=O)N(C3CCCCC3)C(=O)[C@@H]12 |  | inconclusive [inhibitor, partial curve, poor fit] |
| Cc1nc(SCC(=O)NCC2CCCO2)c2c(C)c(C)sc2n1 (stereo not drawn) | inactive: 13% |  |
| Cc1cccc2cc(C3CC(c4cccs4)=NN3S(C)(=O)=O)c(Cl)nc12 (stereo not drawn) |  | inconclusive [inhibitor, single point] |
| O=C(OCC(=O)N1CCOCC1)c1ccccc1OCc1ccc(Cl)cc1 |  | inconclusive [inhibitor, single point] |
| COc1cccc(-c2cc(C(=O)N3CCN(c4ncccn4)CC3)c3ccccc3n2)c1 |  | inconclusive [inhibitor, single point] |
| Cc1cc(C)c(S(=O)(=O)N(CC(=O)NCc2cccnc2)C2CCCCC2)c(C)c1 |  | inconclusive [inhibitor, single point] |

| Compound | activity change, negative = inhibition | Potency |
| --- | --- | --- |
| Cc1ccc(SCC(=O)N(C)CC(=O)Nc2cccc(F)c2)cc1 |  | inconclusive [inhibitor, single point] |
| CC(C)(CCC(=S)N1CCOCC1)c1ccccc1 |  | inconclusive [inhibitor, single point] |
| CCC1CSC(Nc2ccc(C(=O)/C=C/c3cccc(C)c3)cc2)=N1 (stereo not drawn) |  | inconclusive [inhibitor, partial curve, poor fit] |
| CCOC(=O)C1=CCN(S(=O)(=O)c2ccccc2C)C1c1ccc(C)cc1 (stereo not drawn) |  | inconclusive [inhibitor, partial curve, poor fit] |
| CCC(NC(=O)c1oc2ccccc2c1COC)c1ccc(OC)cc1 (stereo not drawn) |  | inconclusive [inhibitor, partial curve, poor fit] |
| COc1cccc(C(C)(O)c2nc(-c3ccc(Cl)cc3)cs2)c1 (stereo not drawn) |  | inconclusive [inhibitor, single point] |
| COc1ccc(NC(=O)Nc2nnc(Cc3ccccc3)s2)cc1 |  | inconclusive [inhibitor, full curve, poor fit] |
| COc1ccc(/C=C2/SC(=S)N(CCCC(=O)Nc3ccc(O)cc3)C2=O)cc1OC |  | inconclusive [inhibitor, full curve] |
| COc1ccc(Cl)cc1NC(=O)Cn1nnc(C(=O)NCc2cccs2)c1N |  | inconclusive [inhibitor, full curve] |
| CC1CN(C(NC(=O)c2ccccc2)C(Cl)(Cl)Cl)CC(C)O1 (stereo not drawn) | inactive: -1.57% |  |
| O=C(Nc1ccccc1)c1ccc(NC(=O)C2CC2)cc1 | inactive: -5.35% |  |
| Cc1nc(N(C)Cc2ccccc2)c2nnn(Cc3ccccc3)c2n1 |  | inconclusive [inhibitor, partial curve, poor fit] |
| O=C(CN(c1cccc(C(F)(F)F)c1)S(=O)(=O)c1ccccc1)Nc1cccc(Cl)c1 |  | inconclusive [inhibitor, partial curve, poor fit] |
| CC(=O)NC(c1ccc([N+](=O)[O-])cc1)c1c(O)ccc2ccccc12 (stereo not drawn) |  | inconclusive [inhibitor, partial curve, poor fit] |
| COC(=O)c1[nH]c2ccc(C)cc2c1NC(=O)C(C)N1CCN(C2CCCCC2)CC1 (stereo not drawn) | inactive: -20.4% |  |
| Cc1ccc(-c2nc(S(=O)(=O)c3ccc(C)cc3)c(N3CCCCC3)o2)cc1 | inactive: -5.88% |  |
| CCOC(=O)CCN1C(=O)c2ccccc2Sc2ncccc21 | inactive: 10.3% |  |
| CCOc1ccc2nc(NC(=O)c3ccccn3)sc2c1 |  | inconclusive [inhibitor, full curve, poor fit] |
| O=C(NCc1ccccc1)c1ccccc1NC(=O)C1CCCCC1 |  | inconclusive [inhibitor, partial curve, poor fit] |
| CCCCN(Cc1ccc(C(=O)N[C@H](C(=O)O)C(C)C)cc1)C(=O)C(c1ccccc1)c1ccccc1 |  | inconclusive [inhibitor, single point] |
| Cc1c(C(=O)NCc2ccc(C#N)cc2)sc(=O)n1Cc1ccc(C(=O)N(C)C)cc1 | inactive: 10.9% |  |

| Compound | activity change, negative = inhibition | Potency |
| --- | --- | --- |
| C=CC[C@@H](CC(=O)N[C@@H](CO)Cc1ccccc1)C(=O)N[C@@H](COC(=O)[C@@H](CC=C)Cc1ccc(F)cc1)Cc1c[nH]c2ccccc12 |  | inconclusive [inhibitor, partial curve] |
| Cc1ccc(Cn2ccnc2SCC(=O)NC2CCCC2)cc1 |  | inconclusive [inhibitor, partial curve] |
| O=C(O)c1ccc(N=Nc2c(O)[nH]c3ccccc23)cc1 |  | inconclusive [inhibitor, full curve, poor fit] |
| CCOc1ccc(CCNC(=O)CN2C(=O)COc3ccc(S(=O)(=O)N(CC)CC)cc32)cc1 | inactive: -25.4% |  |
| COc1ccc(/C=N/NC(=O)c2ccccc2)cc1OS(=O)(=O)c1ccccc1 |  | inconclusive [inhibitor, partial curve, poor fit] |
| Cc1ccc(NC(=O)CNc2cccc(Br)c2)cc1S(=O)(=O)N1CCOCC1 |  | inconclusive [inhibitor, partial curve, poor fit] |
| COc1ccc(N2CCN(CC(O)c3c[nH]c4ccc(OC)cc34)CC2C)cc1 (stereo not drawn) |  | inconclusive [inhibitor, single point] |
| CC(C)(C)S(=O)N1Cc2cc(C(=O)NCc3ccc4c(c3)OCO4)nc(-c3cccc(-c4ccccc4)c3)c2[C@@H]1CCO (stereo partly drawn) | inactive: -18.9% |  |
| COc1ccc(CCNC(=O)CCOc2ccc(C(C)(C)C)cc2)cc1OC |  | inconclusive [inhibitor, partial curve, poor fit] |
| O=C(Nc1ccccc1)Nc1ccc(O)c2ccccc12 |  | inconclusive [inhibitor, single point] |
| c1ccc(C2(CN3CCNC[C@@H]3CC3CCCCC3)CC2)cc1 |  | inconclusive [inhibitor, single point] |
| Cc1ccc2nc(SCC(=O)Nc3ccc4c(c3)OCCO4)[nH]c2c1 | inactive: 5.62% |  |
| COc1ccc(NC(=O)N2CCN(c3cccc(C(F)(F)F)c3)CC2)cc1OC |  | inconclusive [inhibitor, single point] |
| CCOc1cc(/C=C2\CCn3c2nc2cc(Cl)ccc2c3=O)ccc1O | inactive: 0.424% |  |
| CCOc1cc(S(=O)(=O)NCc2ccccc2)ccc1F |  | inconclusive [inhibitor, single point] |
| Cc1ccc(S(=O)(=O)NCCC2(C(C)C)CCOC(C)(C)C2)cc1 (stereo not drawn) |  | inconclusive [inhibitor, partial curve, poor fit] |
| CCCC(=O)Nc1ccc(C2C(=O)c3ccccc3C2=O)cc1 | inactive: 15.9% |  |
| COc1ccc(NC(=O)CCCOc2ccc(C)cc2)cc1S(=O)(=O)N1CCCCC1 |  | inconclusive [inhibitor, single point] |
| O=S(=O)(c1ccccc1)c1nnn2c1nc(NC1CCCCCC1)c1sccc12 | inactive: 11.6% |  |
| Cc1cc(C)c(O)c(-c2cc(C(=O)Nc3c(C)n(C)n(-c4ccccc4)c3=O)[nH]n2)c1 |  | inconclusive [inhibitor, single point] |
| Cc1cccc(Cl)c1NC(=O)N1CCCN(c2nc3ccc(Cl)cc3s2)CC1 |  | inconclusive [inhibitor, partial curve, poor fit] |
